The values below come from the supplement of paper PMC4604168 (melanoma cell lines).

This is one part of the list. Single values are uncertain, as repeats are few or missing.
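Also: cells treated in 1,536-well plates, then fixed and DAPI-stained, with nuclei counted from automated high-throughput microscope images.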

The first assay has as its system SkMel30. Put plainly: cell count relative to DMSO control; melanoma cells; higher = more viable cells. The following applies: library dose: standard library concentration; 72 h.
For `CCCS(=O)(=O)Nc1ccc(F)c(C(=O)c2c[nH]c3ncc(Cl)cc23)c1F` + Oc1nc(-c2ccc(C(F)(F)F)cc2)nc2c1CSCC2 [XAV939] (first compound 0.4 µM, partner dose 10 µM), the cell count came to 110%.
As to `CN(c1ncccc1CNc1nc(Nc2ccc3c(c2)CC(=O)N3)ncc1C(F)(F)F)S(C)(=O)=O` + COc1cc(N2CCC(N3CCN(C)CC3)CC2)ccc1Nc1ncc(Cl)c(Nc2ccccc2S(=O)(=O)C(C)C)n1 [NVP-TAE684] (first compound 0.4 µM, partner dose 0.4 µM), the cell count amounted to 72.5%.
On the same count and under the same terms, next, `CCCS(=O)(=O)Nc1ccc(F)c(C(=O)c2c[nH]c3ncc(Cl)cc23)c1F` + c1cc(-c2cnn3cc(-c4ccc(OCCN5CCCCC5)cc4)cnc23)ccn1 [Dorsomorphin] (first compound 0.4 µM, partner dose 2 µM): 117%; `NC1(c2ccc(-c3nc4ccn5c(=O)[nH]nc5c4cc3-c3ccccc3)cc2)CCC1` + O=C1NC(=O)/C(=C/c2ccc(-c3ccc(F)cc3O)o2)S1 [AS252424] (first compound 2 µM, partner dose 5 µM): 101%; `CCCS(=O)(=O)Nc1ccc(F)c(C(=O)c2c[nH]c3ncc(Cl)cc23)c1F` + Cc1cc([N+](=O)[O-])ccc1NS(=O)(=O)c1cc(Cl)ccc1Cl [FH535] (first compound 0.4 µM, partner dose 5 µM): 115%.
On to `CN(c1ncccc1CNc1nc(Nc2ccc3c(c2)CC(=O)N3)ncc1C(F)(F)F)S(C)(=O)=O` + CC(C)CCN1c2nc(Nc3cc(F)c(O)c(F)c3)ncc2N(C)C(=O)C1C [BID1870] (first compound 0.4 µM, partner dose 1 µM), for which the cell count worked out at 80.8%.

For another assay, the system named is SkMel5. The assay is described as above. The following applies: library dose: standard library concentration; 72 h.
In the case of `CCCS(=O)(=O)Nc1ccc(F)c(C(=O)c2c[nH]c3ncc(Cl)cc23)c1F` + NC(=O)Nc1cc(-c2cccc(F)c2)sc1C(=O)N[C@H]1CCCNC1 [AZD7762] (first compound 0.4 µM, partner dose 0.1 µM), the cell count was determined as 91.9%.
`CN(c1ncccc1CNc1nc(Nc2ccc3c(c2)CC(=O)N3)ncc1C(F)(F)F)S(C)(=O)=O` + O=c1cc(-c2cccc3c2Sc2ccccc2S3)oc(N2CCOCC2)c1 [KU55933] (first compound 0.4 µM, partner dose 5 µM) showed a cell count of 85.1%.
On the same count and under the same terms, next, `CN(c1ncccc1CNc1nc(Nc2ccc3c(c2)CC(=O)N3)ncc1C(F)(F)F)S(C)(=O)=O` + O=C(O)C(=O)Nc1sc2c(c1C(=O)O)CCNC2 [TCS401] (first compound 0.4 µM, partner dose 8.33333 µM): 49.3%.
The same measure, in the same setting: next, `NC1(c2ccc(-c3nc4ccn5c(=O)[nH]nc5c4cc3-c3ccccc3)cc2)CCC1` + O=S(=O)(c1ccccc1)N(CC(F)(F)F)c1ccc(C(O)(C(F)(F)F)C(F)(F)F)cc1 [T0901317] (first compound 2 µM, partner dose 7 µM): 53.9%; `CCCS(=O)(=O)Nc1ccc(F)c(C(=O)c2c[nH]c3ncc(Cl)cc23)c1F` + O=S(=O)(c1ccccc1)N(CC(F)(F)F)c1ccc(C(O)(C(F)(F)F)C(F)(F)F)cc1 [T0901317] (first compound 0.4 µM, partner dose 7 µM): 54.6%.
With `CN(c1ncccc1CNc1nc(Nc2ccc3c(c2)CC(=O)N3)ncc1C(F)(F)F)S(C)(=O)=O` + O=C(Nc1ccccc1)c1cc([N+](=O)[O-])ccc1Cl [GW9662] (first compound 0.4 µM, partner dose 10 µM), the cell count came out at 97.9%.
Consider `CS(=O)(=O)c1ccc(C(=O)Nc2ccc(Cl)c(-c3ccccn3)c2)c(Cl)c1` [vismodegib] + COc1cc2ncnc(Nc3ccc(Oc4ccccc4)cc3)c2cc1OC [SrcI1] (first compound 5 µM, partner dose 10 µM), for which the cell count amounted to 68.8%.
Same read-out and setting: next, `NC1(c2ccc(-c3nc4ccn5c(=O)[nH]nc5c4cc3-c3ccccc3)cc2)CCC1` + O=C(O)C(=O)Nc1sc2c(c1C(=O)O)CCNC2 [TCS401] (first compound 2 µM, partner dose 8.33333 µM): 66.7%; `NC1(c2ccc(-c3nc4ccn5c(=O)[nH]nc5c4cc3-c3ccccc3)cc2)CCC1` + COc1ccc(COc2ccc(Cc3cnc(N)nc3N)cc2OC)cc1 [GW2580] (first compound 2 µM, partner dose 5 µM): 53.9%; `CS(=O)(=O)c1ccc(C(=O)Nc2ccc(Cl)c(-c3ccccn3)c2)c(Cl)c1` [vismodegib] + Cn1cc(/C=C2\C(=O)Nc3cccnc32)c2ccccc21 [GW441756] (first compound 5 µM, partner dose 2 µM): 79.9%.
For `NC1(c2ccc(-c3nc4ccn5c(=O)[nH]nc5c4cc3-c3ccccc3)cc2)CCC1` + CCN(CC)CCCCNc1ncc2cc(-c3cc(OC)cc(OC)c3)c(NC(=O)NC(C)(C)C)nc2n1 [PD173074] (first compound 2 µM, partner dose 0.5 µM), the cell count is 65.8%.
Same read-out and setting: then `C=C(c1ccc(C(=O)O)cc1)c1cc2c(cc1C)C(C)(C)CCC2(C)C` [Bexarotene] + COc1ccc(-c2ccc3c(N4CCOCC4)nc(N4C[C@@H](C)O[C@@H](C)C4)nc3n2)cc1CO [KU0063794] (first compound 10 µM, partner dose 0.1 µM), with 82.1%; and `NC1(c2ccc(-c3nc4ccn5c(=O)[nH]nc5c4cc3-c3ccccc3)cc2)CCC1` + c1cc(-c2cnn3cc(-c4ccc(OCCN5CCCCC5)cc4)cnc23)ccn1 [Dorsomorphin] (first compound 2 µM, partner dose 2 µM), with 48.3%.
Still for that read-out and setting: then `CN(c1ncccc1CNc1nc(Nc2ccc3c(c2)CC(=O)N3)ncc1C(F)(F)F)S(C)(=O)=O` + O=S(=O)(c1ccccc1)N(CC(F)(F)F)c1ccc(C(O)(C(F)(F)F)C(F)(F)F)cc1 [T0901317] (first compound 0.4 µM, partner dose 7 µM), with 43.8%.
`C=C(c1ccc(C(=O)O)cc1)c1cc2c(cc1C)C(C)(C)CCC2(C)C` [Bexarotene] + O=C1NC(=O)/C(=C/c2ccc(-c3ccc(F)cc3O)o2)S1 [AS252424] (first compound 10 µM, partner dose 5 µM): the cell count stood at 69.6%.
On the same count and under the same terms, then `CN(c1ncccc1CNc1nc(Nc2ccc3c(c2)CC(=O)N3)ncc1C(F)(F)F)S(C)(=O)=O` + COc1cc2c(Oc3ccc4[nH]c(C)cc4c3F)ncnc2cc1OCCCN1CCCC1 [cediranib] (first compound 0.4 µM, partner dose 2 µM), with 55.8%; and `CCCS(=O)(=O)Nc1ccc(F)c(C(=O)c2c[nH]c3ncc(Cl)cc23)c1F` + CCCCCCCCCCCC1=C(O)C(=O)C=C(O)C1=O [Embelin] (first compound 0.4 µM, partner dose 6 µM), with 78.8%.
`CCCS(=O)(=O)Nc1ccc(F)c(C(=O)c2c[nH]c3ncc(Cl)cc23)c1F` + Cc1cc(N2CCOCC2)cc2[nH]c(-c3c(NC[C@@H](O)c4cccc(Cl)c4)cc[nH]c3=O)nc12 [BMS536924] (first compound 0.4 µM, partner dose 1 µM) displayed a cell count of 87.4%.
The same measure, in the same setting: then `C=C(c1ccc(C(=O)O)cc1)c1cc2c(cc1C)C(C)(C)CCC2(C)C` [Bexarotene] + Cn1cc(/C=C2\C(=O)Nc3cccnc32)c2ccccc21 [GW441756] (first compound 10 µM, partner dose 2 µM), with 66.3%; and `C=C(c1ccc(C(=O)O)cc1)c1cc2c(cc1C)C(C)(C)CCC2(C)C` [Bexarotene] + C[C@@H]1CCN(C(=O)CC#N)C[C@@H]1N(C)c1ncnc2[nH]ccc12 [CP690550] (first compound 10 µM, partner dose 5 µM), with 98.4%.
Still for that read-out and setting: then `C=C(c1ccc(C(=O)O)cc1)c1cc2c(cc1C)C(C)(C)CCC2(C)C` [Bexarotene] + N#Cc1c(O)c2c(-c3ccc(-c4ccccc4O)cc3)csc2[nH]c1=O [A769662] (first compound 10 µM, partner dose 10 µM), with 93%; and `C=C(c1ccc(C(=O)O)cc1)c1cc2c(cc1C)C(C)(C)CCC2(C)C` [Bexarotene] + Cc1cc([N+](=O)[O-])ccc1NS(=O)(=O)c1cc(Cl)ccc1Cl [FH535] (first compound 10 µM, partner dose 5 µM), with 73.5%; and `CCCS(=O)(=O)Nc1ccc(F)c(C(=O)c2c[nH]c3ncc(Cl)cc23)c1F` + COc1cc2c(Oc3ccc4[nH]c(C)cc4c3F)ncnc2cc1OCCCN1CCCC1 [cediranib] (first compound 0.4 µM, partner dose 2 µM), with 73.9%.
In turn, `C=C(c1ccc(C(=O)O)cc1)c1cc2c(cc1C)C(C)(C)CCC2(C)C` [Bexarotene] + CCN(CC)CCCCNc1ncc2cc(-c3cc(OC)cc(OC)c3)c(NC(=O)NC(C)(C)C)nc2n1 [PD173074] (first compound 10 µM, partner dose 0.5 µM) displayed a cell count of 88.1%.
As to `C=C(c1ccc(C(=O)O)cc1)c1cc2c(cc1C)C(C)(C)CCC2(C)C` [Bexarotene] + CC(C)CCN1c2nc(Nc3cc(F)c(O)c(F)c3)ncc2N(C)C(=O)C1C [BID1870] (first compound 10 µM, partner dose 1 µM), the cell count was found to be 69.6%.
On the same count and under the same terms, then `CS(=O)(=O)c1ccc(C(=O)Nc2ccc(Cl)c(-c3ccccn3)c2)c(Cl)c1` [vismodegib] + O=C(Nc1ccccc1)c1cc([N+](=O)[O-])ccc1Cl [GW9662] (first compound 5 µM, partner dose 10 µM), with 90.8%; and `CS(=O)(=O)c1ccc(C(=O)Nc2ccc(Cl)c(-c3ccccn3)c2)c(Cl)c1` [vismodegib] + c1cc(-c2cnn3cc(-c4ccc(OCCN5CCCCC5)cc4)cnc23)ccn1 [Dorsomorphin] (first compound 5 µM, partner dose 2 µM), with 54.4%.
